From the supplement of paper PMC8728848
Some of the results follow.

What was measured:
Assay in all cases: glycan array binding signal (z-score within array); higher = stronger binding
Details in all cases: glycan notation: IUPAC condensed, linker removed
GlcA(b1-3)GlcNAc = molecular target: GlcA(b1-3)GlcNAc
Method in brief: (§1)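 Glycan array data were curated from 3228 arrays in the Consortium for Functional Glycomics database and kept only where the protein sequence was available. Glycan names were converted to IUPAC-condensed notation, and columns mapping to the same glycan were averaged. The binding signal is a within-array Z-score, averaged across arrays of the same protein sequence at different concentrations or buffers and across linkers. Negative Z-scores can be read as non-binding.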

GlcA(b1-6)Gal = molecular target: GlcA(b1-6)Gal
Method in brief: as §1

[1] = molecular target: GlcNAc(a1-3)Gal(b1-4)GlcNAc
Method in brief: as §1

[2] = molecular target: GlcNAc(a1-6)Gal(b1-4)GlcNAc
Method in brief: as §1

[3] = molecular target: GlcNAc(b1-2)Gal(b1-3)GalNAc
Method in brief: as §1

[4] = molecular target: GlcNAc(b1-2)Man(a1-3)[GlcNAc(b1-2)Man(a1-6)]Man(b1-4)GlcNAc(b1-4)GlcNAc
Method in brief: as §1

GlcNAc(b1-3)Gal = molecular target: GlcNAc(b1-3)Gal
Method in brief: as §1

[5] = molecular target: GlcNAc(b1-3)Gal(b1-3)GalNAc
Method in brief: as §1

GlcNAc(b1-3)Gal(b1-4)Glc = molecular target: GlcNAc(b1-3)Gal(b1-4)Glc
Method in brief: as §1

[6] = molecular target: GlcNAc(b1-3)Gal(b1-4)GlcNAc
Method in brief: as §1

[7] = molecular target: GlcNAc(b1-3)Gal(b1-4)GlcNAc(b1-3)Gal(b1-4)GlcNAc
Method in brief: as §1

GlcNAc(b1-3)GalNAc = molecular target: GlcNAc(b1-3)GalNAc
Method in brief: as §1

GlcNAc(b1-3)Man = molecular target: GlcNAc(b1-3)Man
Method in brief: as §1

[8] = molecular target: GlcNAc(b1-3)[GlcNAc(b1-4)][GlcNAc(b1-6)]GlcNAc
Method in brief: as §1

[9] = molecular target: GlcNAc(b1-3)[GlcNAc(b1-6)]Gal(b1-4)GlcNAc
Method in brief: as §1

[10] = molecular target: GlcNAc(b1-3)[GlcNAc(b1-6)]GalNAc
Method in brief: as §1

[11] = molecular target: GlcNAc(b1-4)Gal(b1-4)GlcNAc
Method in brief: as §1

GlcNAc(b1-4)GlcNAc = molecular target: GlcNAc(b1-4)GlcNAc
Method in brief: as §1

[12] = molecular target: GlcNAc(b1-4)GlcNAc(b1-4)GlcNAc
Method in brief: as §1

[13] = molecular target: GlcNAc(b1-4)GlcNAc(b1-4)GlcNAc(b1-4)GlcNAc(b1-4)GlcNAc
Method in brief: as §1

[14] = molecular target: GlcNAc(b1-4)GlcNAc(b1-4)GlcNAc(b1-4)GlcNAc(b1-4)GlcNAc(b1-4)GlcNAc
Method in brief: as §1

[15] = molecular target: GlcNAc(b1-4)[GlcNAc(b1-6)]GalNAc
Method in brief: as §1

[16] = molecular target: GlcNAc(b1-6)Gal(b1-4)GlcNAc
Method in brief: as §1

GlcNAc(b1-6)GalNAc = molecular target: GlcNAc(b1-6)GalNAc
Method in brief: as §1

GlcNAc3Prop(b1-4)GlcNAc = molecular target: GlcNAc3Prop(b1-4)GlcNAc
Method in brief: as §1

Kdn(a2-3)Gal(b1-3)GlcNAc = molecular target: Kdn(a2-3)Gal(b1-3)GlcNAc
Method in brief: as §1

Kdn(a2-3)Gal(b1-4)GlcNAc = molecular target: Kdn(a2-3)Gal(b1-4)GlcNAc
Method in brief: as §1

[17] = molecular target: Man(a1-2)Man(a1-2)Man(a1-3)Man
Method in brief: as §1

[18] = molecular target: Man(a1-2)Man(a1-2)Man(a1-6)[Man(a1-3)]Man
Method in brief: as §1

Man(a1-2)Man(a1-3)Man = molecular target: Man(a1-2)Man(a1-3)Man
Method in brief: as §1

[19] = molecular target: Man(a1-2)Man(a1-3)[Man(a1-2)Man(a1-6)]Man
Method in brief: as §1

[20] = molecular target: Man(a1-2)Man(a1-3)[Man(a1-2)Man(a1-6)]Man(a1-6)[Man(a1-2)Man(a1-2)Man(a1-3)]Man
Method in brief: as §1

[21] = molecular target: Man(a1-2)Man(a1-3)[Man(a1-2)Man(a1-6)]Man(a1-6)[Man(a1-2)Man(a1-2)Man(a1-3)]Man(b1-4)GlcNAc(b1-4)GlcNAc
Method in brief: as §1

[22] = molecular target: Man(a1-2)Man(a1-3)[Man(a1-6)]Man(a1-6)[Man(a1-2)Man(a1-3)]Man(b1-4)GlcNAc(b1-4)GlcNAc
Method in brief: as §1

[23] = molecular target: Man(a1-2)Man(a1-6)[Man(a1-3)]Man(a1-6)[Man(a1-2)Man(a1-2)Man(a1-3)]Man
Method in brief: as §1

[24] = molecular target: Man(a1-2)Man(a1-6)[Man(a1-3)]Man(a1-6)[Man(a1-2)Man(a1-2)Man(a1-3)]Man(b1-4)GlcNAc(b1-4)GlcNAc
Method in brief: as §1

Man(a1-3)[Man(a1-6)]Man = molecular target: Man(a1-3)[Man(a1-6)]Man
Method in brief: as §1

B1: MUC1-SEA-mFcIgG2a (Homo sapiens), P15941 (SEA domain only) (protein)
chain: DAAQPARRAVRSSSELTSEQKLISEEDLSRLVHNGTSARATTTPASKSTPFSIPSHHSDTPTTLASHSTKTDASSTHHSTVPPLTSSNHSTSPQLSTGVSFFFLSFHISNLQFNSSLEDPSTDYYQELQRDISEMFLQIYKQGGFLGLSNIKFRPGSVVVQLTLAFREGTINVHDVETQFNQYKTEAASRYNLTISDASVSDVPFPFSAQSGSDDDDKALEPRGPTIKPCPPCKCPAPNLLGGPSVFIFPPKIKDVLMISLSPIVTCVVVDVSEDDPDVQISWFVNNVEVHTAQTQTHREDYNSTLRVVSALPIQHQDWMSGKEFKCKVNNKDLPAPIERTISKPKGSVRAPQVYVLPPPEEEMTKKQVTLTCMVTDFMPEDIYVEWTNNGKTELNYKNTEPVLDSDGSYFMYSKLRVEKKNWVERNSYSCSVVHEGLHNHHTTKSFSRTPGKHHHHH
glycan array binding signal (z-score) (GlcA(b1-3)GlcNAc): -0.276 | glycan array binding signal (z-score) (GlcA(b1-6)Gal): 0.092 | glycan array binding signal (z-score) [1]: -0.13 | glycan array binding signal (z-score) [2]: -0.14 | glycan array binding signal (z-score) [3]: -0.321 | glycan array binding signal (z-score) [4]: -0.274 | glycan array binding signal (z-score) (GlcNAc(b1-3)Gal): -0.151 | glycan array binding signal (z-score) [5]: 0.025 | glycan array binding signal (z-score) (GlcNAc(b1-3)Gal(b1-4)Glc): 0.003 | glycan array binding signal (z-score) [6]: -0.309 | glycan array binding signal (z-score) [7]: -0.388 | glycan array binding signal (z-score) (GlcNAc(b1-3)GalNAc): -0.033 | glycan array binding signal (z-score) (GlcNAc(b1-3)Man): 0.606 | glycan array binding signal (z-score) [8]: -0.427 | glycan array binding signal (z-score) [9]: -0.582 | glycan array binding signal (z-score) [10]: -0.035 | glycan array binding signal (z-score) [11]: -0.565 | glycan array binding signal (z-score) (GlcNAc(b1-4)GlcNAc): -0.16 | glycan array binding signal (z-score) [12]: -0.087 | glycan array binding signal (z-score) [13]: -0.175 | glycan array binding signal (z-score) [14]: -0.254 | glycan array binding signal (z-score) [15]: -0.223 | glycan array binding signal (z-score) [16]: -0.174 | glycan array binding signal (z-score) (GlcNAc(b1-6)GalNAc): -0.383 | glycan array binding signal (z-score) (GlcNAc3Prop(b1-4)GlcNAc): 0.085 | glycan array binding signal (z-score) (Kdn(a2-3)Gal(b1-3)GlcNAc): 0.064 | glycan array binding signal (z-score) (Kdn(a2-3)Gal(b1-4)GlcNAc): -0.262 | glycan array binding signal (z-score) [17]: 0.607 | glycan array binding signal (z-score) [18]: -0.458 | glycan array binding signal (z-score) (Man(a1-2)Man(a1-3)Man): 0.529 | glycan array binding signal (z-score) [19]: -0.325 | glycan array binding signal (z-score) [20]: -0.213 | glycan array binding signal (z-score) [21]: 0.324 | glycan array binding signal (z-score) [22]: -0.266 | glycan array binding signal (z-score) [23]: -0.315 | glycan array binding signal (z-score) [24]: -0.21 | glycan array binding signal (z-score) (Man(a1-3)[Man(a1-6)]Man): -0.497
